# According to the supplement of paper PMC8728848:
# Some of the results follow.
# B1: Als3-41 (Candida albicans) (protein)
# chain: KTITGVFNSFNSLTWSNAATYNYKGPGTPTWNAVLGWSLDGTSASPGDTFTLNMPCVFKFTTSQTSVDLTAHGVKYATCQFQAGEEFMTFSTLTCTVSNTLTPSIKALGTVTLPLAFNVGGTGSSVDLEDSKCFTAGTNTVTFNDGGKKISINVDFERSNVDPKGYLTDSRVIPSLNKVSTLFVAPQCANGYTSGTMGFANTYGDVQIDCSNIHVGITKGLNDWNYPVSSESFSYTKTCSSNGIFITYKNVPAGYRPFVDAYISATDVNSYTLSYANEYTCAGGYWQRAPFTLRWTGYRNSDAGSNGIVIVATTRTVTDSTTAVTTLPFDPNRDKTKTIEILKPIPTTTITTSYVGVTTSYLTKTAPIGETATVIVD
# Experiments:
# Experiment in all cases: glycan array binding signal (z-score within array); higher = stronger binding
# Details in all cases: glycan notation: IUPAC condensed, linker removed
# [1] = target: Neu5Ac(a2-3)Gal(b1-3)]Neu5Ac(a2-3)Gal(b1-4)]GlcNAc
# How it was run: (§1)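 Columns mapping to the same glycan were averaged after glycan names were converted to IUPAC-condensed notation. The data come from 3228 arrays in the Consortium for Functional Glycomics database, limited to those with an available protein sequence. Binding is reported as a within-array Z-score averaged across arrays of one protein sequence and across linkers.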
# Neu5Ac(a2-3)Gal(b1-4)Glc = target: Neu5Ac(a2-3)Gal(b1-4)Glc
# How it was run: as §1
# [2] = target: Neu5Ac(a2-3)Gal(b1-4)GlcNAc
# How it was run: as §1
# [3] = target: Neu5Ac(a2-3)Gal(b1-4)GlcNAc(b1-2)Man
# How it was run: as §1
# [4] = target: Neu5Ac(a2-3)Gal(b1-4)GlcNAc(b1-2)Man(a1-3)[GlcNAc(b1-4)][Neu5Ac(a2-3)Gal(b1-4)GlcNAc(b1-2)Man(a1-6)]Man(b1-4)GlcNAc(b1-4)GlcNAc
# How it was run: as §1
# [5] = target: Neu5Ac(a2-3)Gal(b1-4)GlcNAc(b1-2)Man(a1-3)[Neu5Ac(a2-3)Gal(b1-4)GlcNAc(b1-2)Man(a1-6)]Man(b1-4)GlcNAc(b1-4)GlcNAc
# How it was run: as §1
# [6] = target: Neu5Ac(a2-3)Gal(b1-4)GlcNAc(b1-2)Man(a1-3)[Neu5Ac(a2-3)Gal(b1-4)GlcNAc(b1-2)Man(a1-6)]Man(b1-4)GlcNAc(b1-4)[Fuc(a1-6)]GlcNAc
# How it was run: as §1
# [7] = target: Neu5Ac(a2-3)Gal(b1-4)GlcNAc(b1-2)Man(a1-3)[Neu5Ac(a2-6)Gal(b1-4)GlcNAc(b1-2)Man(a1-6)]Man(b1-4)GlcNAc(b1-4)GlcNAc
# How it was run: as §1
# [8] = target: Neu5Ac(a2-3)Gal(b1-4)GlcNAc(b1-2)[Neu5Ac(a2-3)Gal(b1-4)GlcNAc(b1-4)]Man(a1-3)[GlcNAc(b1-4)][Neu5Ac(a2-3)Gal(b1-4)GlcNAc(b1-2)[Neu5Ac(a2-3)Gal(b1-4)GlcNAc(b1-6)]Man(a1-6)]Man(b1-4)GlcNAc(b1-4)GlcNAc
# How it was run: as §1
# [9] = target: Neu5Ac(a2-3)Gal(b1-4)GlcNAc(b1-2)[Neu5Ac(a2-3)Gal(b1-4)GlcNAc(b1-4)]Man(a1-3)[GlcNAc(b1-4)][Neu5Ac(a2-3)Gal(b1-4)GlcNAc(b1-4)Man(a1-6)]Man(b1-4)GlcNAc(b1-4)GlcNAc
# How it was run: as §1
# [10] = target: Neu5Ac(a2-3)Gal(b1-4)GlcNAc(b1-2)[Neu5Ac(a2-3)Gal(b1-4)GlcNAc(b1-6)]Man(a1-6)[Neu5Ac(a2-3)Gal(b1-4)GlcNAc(b1-2)Man(a1-3)]Man(b1-4)GlcNAc(b1-4)GlcNAc
# How it was run: as §1
# [11] = target: Neu5Ac(a2-3)Gal(b1-4)GlcNAc(b1-2)[Neu5Ac(a2-3)Gal(b1-4)GlcNAc(b1-6)]Man(a1-6)[Neu5Ac(a2-3)Gal(b1-4)GlcNAc(b1-2)Man(a1-3)][GlcNAc(b1-4)]Man(b1-4)GlcNAc(b1-4)GlcNAc
# How it was run: as §1
# [12] = target: Neu5Ac(a2-3)Gal(b1-4)GlcNAc(b1-3)Gal
# How it was run: as §1
# [13] = target: Neu5Ac(a2-3)Gal(b1-4)GlcNAc(b1-3)Gal(b1-3)GlcNAc
# How it was run: as §1
# [14] = target: Neu5Ac(a2-3)Gal(b1-4)GlcNAc(b1-3)Gal(b1-4)GlcNAc
# How it was run: as §1
# [15] = target: Neu5Ac(a2-3)Gal(b1-4)GlcNAc(b1-3)Gal(b1-4)GlcNAc(b1-2)Man(a1-3)[Neu5Ac(a2-3)Gal(b1-4)GlcNAc(b1-3)Gal(b1-4)GlcNAc(b1-2)Man(a1-6)]Man(b1-4)GlcNAc(b1-4)GlcNAc
# How it was run: as §1
# [16] = target: Neu5Ac(a2-3)Gal(b1-4)GlcNAc(b1-3)Gal(b1-4)GlcNAc(b1-3)Gal(b1-4)GlcNAc
# How it was run: as §1
# [17] = target: Neu5Ac(a2-3)Gal(b1-4)GlcNAc(b1-3)Gal(b1-4)GlcNAc(b1-3)Gal(b1-4)GlcNAc(b1-2)Man(a1-3)[Neu5Ac(a2-3)Gal(b1-4)GlcNAc(b1-3)Gal(b1-4)GlcNAc(b1-3)Gal(b1-4)GlcNAc(b1-2)Man(a1-6)]GalNAc
# How it was run: as §1
# [18] = target: Neu5Ac(a2-3)Gal(b1-4)GlcNAc(b1-3)Gal(b1-4)GlcNAc(b1-3)GalNAc
# How it was run: as §1
# [19] = target: Neu5Ac(a2-3)Gal(b1-4)GlcNAc(b1-3)Gal(b1-4)GlcNAc(b1-3)[Neu5Ac(a2-3)Gal(b1-4)GlcNAc(b1-3)Gal(b1-4)GlcNAc(b1-6)]GalNAc
# How it was run: as §1
# [20] = target: Neu5Ac(a2-3)Gal(b1-4)GlcNAc(b1-3)Gal(b1-4)GlcNAc(b1-6)[Gal(b1-3)]GalNAc
# How it was run: as §1
# [21] = target: Neu5Ac(a2-3)Gal(b1-4)GlcNAc(b1-3)Gal(b1-4)[Fuc(a1-3)]GlcNAc
# How it was run: as §1
# [22] = target: Neu5Ac(a2-3)Gal(b1-4)GlcNAc(b1-3)GalNAc
# How it was run: as §1
# [23] = target: Neu5Ac(a2-3)Gal(b1-4)GlcNAc(b1-3)[Neu5Ac(a2-3)Gal(b1-4)GlcNAc(b1-6)]GalNAc
# How it was run: as §1
# [24] = target: Neu5Ac(a2-3)Gal(b1-4)GlcNAc(b1-6)GalNAc
# How it was run: as §1
# [25] = target: Neu5Ac(a2-3)Gal(b1-4)GlcNAc(b1-6)[Gal(b1-3)]GalNAc
# How it was run: as §1
# [26] = target: Neu5Ac(a2-3)Gal(b1-4)GlcNAc(b1-6)[Neu5Ac(a2-3)Gal(b1-3)]GalNAc
# How it was run: as §1
# [27] = target: Neu5Ac(a2-3)Gal(b1-4)GlcNAc6S
# How it was run: as §1
# [28] = target: Neu5Ac(a2-3)Gal(b1-4)[Fuc(a1-3)]GlcNAc
# How it was run: as §1
# [29] = target: Neu5Ac(a2-3)Gal(b1-4)[Fuc(a1-3)]GlcNAc(b1-2)Man
# How it was run: as §1
# [30] = target: Neu5Ac(a2-3)Gal(b1-4)[Fuc(a1-3)]GlcNAc(b1-3)Gal
# How it was run: as §1
# [31] = target: Neu5Ac(a2-3)Gal(b1-4)[Fuc(a1-3)]GlcNAc(b1-3)Gal(b1-4)GlcNAc
# How it was run: as §1
# [32] = target: Neu5Ac(a2-3)Gal(b1-4)[Fuc(a1-3)]GlcNAc(b1-3)Gal(b1-4)[Fuc(a1-3)]GlcNAc(b1-3)Gal(b1-4)[Fuc(a1-3)]GlcNAc
# How it was run: as §1
# [33] = target: Neu5Ac(a2-3)Gal(b1-4)[Fuc(a1-3)]GlcNAc(b1-3)GalNAc
# How it was run: as §1
# [34] = target: Neu5Ac(a2-3)Gal(b1-4)[Fuc(a1-3)]GlcNAc(b1-6)[Gal(b1-3)]GalNAc
# How it was run: as §1
# [35] = target: Neu5Ac(a2-3)Gal(b1-4)[Fuc(a1-3)]GlcNAc(b1-6)[Neu5Ac(a2-3)Gal(b1-3)]GalNAc
# How it was run: as §1
# [36] = target: Neu5Ac(a2-3)Gal(b1-4)[Fuc(a1-3)]GlcNAc6S
# How it was run: as §1
# [37] = target: Neu5Ac(a2-3)Gal6S(b1-4)GlcNAc
# How it was run: as §1
binder,measurement,setting,value
B1,glycan array binding signal (z-score),[1],-0.353
same,glycan array binding signal (z-score),Neu5Ac(a2-3)Gal(b1-4)Glc,1.23
same,glycan array binding signal (z-score),[2],-0.181
same,glycan array binding signal (z-score),[3],0.213
same,glycan array binding signal (z-score),[4],-0.211
same,glycan array binding signal (z-score),[5],-0.218
same,glycan array binding signal (z-score),[6],-0.35
same,glycan array binding signal (z-score),[7],-0.392
same,glycan array binding signal (z-score),[8],-0.312
same,glycan array binding signal (z-score),[9],-0.395
same,glycan array binding signal (z-score),[10],0.233
same,glycan array binding signal (z-score),[11],-0.315
same,glycan array binding signal (z-score),[12],-0.188
same,glycan array binding signal (z-score),[13],-0.341
same,glycan array binding signal (z-score),[14],-0.285
same,glycan array binding signal (z-score),[15],0.564
same,glycan array binding signal (z-score),[16],-0.239
same,glycan array binding signal (z-score),[17],6.54
same,glycan array binding signal (z-score),[18],-0.004
same,glycan array binding signal (z-score),[19],-0.053
same,glycan array binding signal (z-score),[20],-0.002
same,glycan array binding signal (z-score),[21],-0.359
same,glycan array binding signal (z-score),[22],0.154
same,glycan array binding signal (z-score),[23],0.327
same,glycan array binding signal (z-score),[24],-0.184
same,glycan array binding signal (z-score),[25],-0.346
same,glycan array binding signal (z-score),[26],-0.35
same,glycan array binding signal (z-score),[27],-0.33
same,glycan array binding signal (z-score),[28],-0.27
same,glycan array binding signal (z-score),[29],-0.28
same,glycan array binding signal (z-score),[30],-0.324
same,glycan array binding signal (z-score),[31],0.101
same,glycan array binding signal (z-score),[32],-0.286
same,glycan array binding signal (z-score),[33],0.574
same,glycan array binding signal (z-score),[34],0.897
same,glycan array binding signal (z-score),[35],0.022
same,glycan array binding signal (z-score),[36],-0.33
same,glycan array binding signal (z-score),[37],-0.205
